In patent US20150044209A1 (ROYAL INSTITUTION FOR THE ADVANCEMENT OF LEARNING MCGILL …, published 2015):

Tests used:
mouse IGF-1 [1] = target: T1, mouse IGF-1 (mouse, UniProt P05017 partial chain); test: SPR, 5-point multi-cycle, ligand over amine-coupled Trap, 1:1 Kinetic model, n=2
T1 construct: also called mIGF-1; mIGF-I

human insulin [2] = target: T2, human insulin (human, UniProt P01308 partial chain; P01308 partial chain); test: as above
T2 construct: also called h-insulin

human IGF-1 [3] = target: T3, human IGF-1 (human, UniProt P05019 partial chain); test: SPR, 10-point multi-cycle, ligand over amine-coupled Trap, 1:1 Kinetic model, n=2
T3 construct: also called hIGF-1; hIGF-I

human IGF-2 [4] = target: T4, human IGF-2 (human, UniProt P01344 partial chain); test: as above
T4 construct: also called hIGF-2; hIGF-II

mouse IGF-1 [5] = target: T1, mouse IGF-1; test: SPR, 5-point single-cycle, ligand over amine-coupled Trap, 1:1 Titration model, n=2
human IGF-1 [6] = target: T3, human IGF-1; test: as above
human IGF-2 [7] = target: T4, human IGF-2; test: as above
human insulin [8] = target: T2, human insulin; test: as above
human IGF-1 [9] = target: T3, human IGF-1; test: SPR (Biacore 3000), multi-cycle, ligand titrated over amine-coupled Trap, 1:1 kinetic model, n=4
human insulin [10] = target: T2, human insulin; test: SPR (Biacore 3000), multi-cycle, insulin titrated over amine-coupled Trap, steady-state affinity model, n=4

T3 sequence (P05019 49-118 limits assumed): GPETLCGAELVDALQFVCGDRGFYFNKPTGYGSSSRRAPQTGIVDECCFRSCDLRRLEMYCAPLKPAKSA
T2 sequence (P01308 25-54 limits assumed, chain 1 of 2): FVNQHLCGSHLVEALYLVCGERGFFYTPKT
T2 sequence (P01308 90-110 limits assumed, chain 2 of 2): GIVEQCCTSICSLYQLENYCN
T1 sequence (P05017 49-118 limits assumed): as the sequence (P05019 49-118 limits assumed) above, with D20P, S35I, A67T, S69A counted along it
T4 sequence (P01344 25-91 limits assumed): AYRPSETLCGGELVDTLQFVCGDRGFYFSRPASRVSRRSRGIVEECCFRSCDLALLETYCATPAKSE

Binder | Kd (mouse IGF-1 [1]) [nM] | Kd (human insulin [2]) [nM] | Kd (human IGF-1 [3]) [nM] | Kd (human IGF-2 [4]) [nM] | Kd (mouse IGF-1 [5]) [nM] | Kd (human IGF-1 [6]) [nM] | Kd (human IGF-2 [7]) [nM] | Kd (human insulin [8]) [nM] | Kd (human IGF-1 [9]) [nM] | Kd (human insulin [10]) [nM]
Trap H: h-sIGF1R-Fc, purified from CHO cells using protein A, pH 4.0 elution, endotoxin-free (Fc fusion, also called Trap H (parent protein); IGF-Trap H) not shown | 74 | 5050 | 5.7 | 32 | 540 | 11 | 98 | 15400 |  | 
Trap E: h-sIGF1R-Fc, purified from CHO cells by CHT and GF (Fc fusion, Trap E is said to be contaminated by high molecular weight species; also called E (control); Fc-sIGF1R) not shown |  |  |  |  |  |  |  |  | 6 | 14000
